{"source": "paper PMC12136788", "binders": {"B1": {"name": "chr11:2905015:2905016:-_ENSG00000129757_ENST00000380725|hu_mus|FALSE|FALSE (ssRNA)", "RNA": "GGGAGUUCUACAGUCCGACGAUCAGUUUUCAGAUUUCCACAAAACCGUGGGCUGCUCUACGCAACCAUCUCCGGUUCCUGCUACAUGAACGAAAGGUCCCAGCCGAAGCCCAGAGUUCUUCCAUCGUCCGCUGCCCAGAUGCCCAACAGAGGAUUGAGCAUCA"}, "B2": {"name": "chr14:66974463:66974464:+_ENSMUSG00000022044_ENSMUST00000074523|mus_hu|mus_mus_mus_hu_False|38_48 (ssRNA)", "RNA": "GGGAGUUCUACAGUCCGACGAUCUUGUAGGACGACUUAUUCAGGGGAUCGGCCAGGAAGCAGGAGCAGAACAAGGACACCAGCGGGAGUUCCUUCAUCUUCUCCUUGUAGGCAGCAAGGGUCAUGUUUCUGGGAUCUGGUGGCCAACAGAGGAUUGAGCAUCA"}, "B3": {"name": "chr3:151883435:151883436:+_ENSMUSG00000028034_ENSMUST00000166984|mus_mus|FALSE|FALSE (ssRNA)", "RNA": "GGGAGUUCUACAGUCCGACGAUCCAUUUCUCCAUUUCUUCCUAUUACAAUGCCAACAGCAAAUCUUGGAAUUGGGACAUCUAUCCCUUCAUUGCCUCCUAUUCUUGAGCCAUACUCAUUCCGCACUUCUCUGAAACCACCUUGCAACAGAGGAUUGAGCAUCA"}, "B4": {"name": "chr10:70691390:70691391:-_ENSMUSG00000003923_ENSMUST00000092430|mus_hu|FALSE|FALSE (ssRNA)", "RNA": "GGGAGUUCUACAGUCCGACGAUCCUUUAUUGUGCGACGUAGAAGAUCCUUUCGUCCAACUUCAAUCAUUUGUUCUUCCCAAGACUUCAUUUCAUUAUGAUAACGAGUUUCGUCCUCUUUAGCAUGCUGAAUAUAUAAUUCCUUCAACAGAGGAUUGAGCAUCA"}, "B5": {"name": "81124230_81124350_1936_CDS_ENSG00000152784_ENST00000415738|human|control|control (ssRNA)", "RNA": "GGGAGUUCUACAGUCCGACGAUCGGCGUACAGGAAGGGGCUCUGCUUAGGCAGGCCGCCGCCGCCGCUCGGCAGGGACCCGCAACCUCCGUUCAGGUCCGCGGCCCCCUGGAGCUUCACCGCUAGAGGGUCCGCGGCGGCGGGCAACAGAGGAUUGAGCAUCA"}, "B6": {"name": "chr6:52679276:52679277:+_ENSMUSG00000004535_ENSMUST00000080723|mus_hu|motif|central (ssRNA)", "RNA": "GGGAGUUCUACAGUCCGACGAUCGUAACAGAACUGAUAAAAUUCUCCAUCAUCAUUUGGAAGGUAAUAUCCUUGGAAUGCGGGUACACAAUUGACUGUUGAUCCUUCCACAUAAUGUUCAGGCAUAGGGGACCAUAAAAACGUCAACAGAGGAUUGAGCAUCA"}, "B7": {"name": "34378438_34378558_645_CDS_ENSG00000134779_ENST00000590842|human|control|control (ssRNA)", "RNA": "GGGAGUUCUACAGUCCGACGAUCGGUGAAGGCAUAUUGCCACUGGGGCAGGCCCAGGUGGGUGAUGAGCAGGCGGUAAUAGGCAGUAAAGGUGUCUGUGAGAAAAUGCCAGUAUAACGCUCUGUCCAGGAACCAGAUCUCAGUCAACAGAGGAUUGAGCAUCA"}, "B8": {"name": "chr2:48026839:48026840:+_ENSG00000116062_ENST00000540021|hu_hu|hu_hu_hu_mus_False|1_78 (ssRNA)", "RNA": "GGGAGUUCUACAGUCCGACGAUCAUAGUGAGCCACUAGCGUCCUAAAUCUGGAACAAUGGCGAUCAUCCGAAAACUGGCCGAUGAAAAACUUGCCCAGUGAAGUGUCCACAAAGCAAACACCAUACACACGAGUGUGGCCAGACAACAGAGGAUUGAGCAUCA"}, "B9": {"name": "chr1:39494564:39494565:+_ENSG00000168653_ENST00000372967|hu_hu|hu_hu_hu_mus_True|18_68 (ssRNA)", "RNA": "GGGAGUUCUACAGUCCGACGAUCAUGCAUUCGCCUCAUCGUUUUGUACCGAAGCAAGCACUCUUCGAAAUCAUCAUACUCUAUCUUGCACUCCUUUUUCGCCCGGGUCCCACCGAUUCCAUGUGCACACUCUAUCCACUCUUUCAACAGAGGAUUGAGCAUCA"}, "B10": {"name": "87970796_87970916_7552_CDS_ENSG00000188994_ENST00000369577|human|control|control (ssRNA)", "RNA": "GGGAGUUCUACAGUCCGACGAUCUUCUGACUGGCAGAGGUUAUCUUCCUGAAAAUCAUUACUUACAUUUGAAGAAGUAUUAGCUUGGGUCUCUACACUUGUGCUAUCUUCAUUUAUUAAUUUUGUAAUAAACAAUUCUGUUAGCAACAGAGGAUUGAGCAUCA"}, "B11": {"name": "chr11:86029109:86029110:-_ENSMUSG00000018068_ENSMUST00000018212|mus_hu|FALSE|FALSE (ssRNA)", "RNA": "GGGAGUUCUACAGUCCGACGAUCGUGAACAAGCUUAGCAAUGUUGGGAUCUGCAAUGUACAUUUGGUGCAAGAGACAACAGAUAAGGCACUGAACUUCUCGAAGGUUACAGAGCAAAUUGUCUUCUCCUUCCUCCAUUCCCUUCAACAGAGGAUUGAGCAUCA"}, "B12": {"name": "chrX:148369326:148369327:+_ENSMUSG00000025261_ENSMUST00000112622|mus_hu|FALSE|FALSE (ssRNA)", "RNA": "GGGAGUUCUACAGUCCGACGAUCCUUGUCUCGCAUUGAAUCAUUAGCUGUGCACAUCAACACAUUCCAAGCACAAAUUAAGAAAUGCAAACAGAACAAAAAAAUAUAUAUAUAUAUAAUUUUUUCCCCUAUCCAAAGGUUUCACAACAGAGGAUUGAGCAUCA"}, "B13": {"name": "chr10:122431106:122431107:-_ENSMUSG00000034602_ENSMUST00000073792|mus_mus|motif|central (ssRNA)", "RNA": "GGGAGUUCUACAGUCCGACGAUCAAUAUUUUCAAAAUGUUGCCACUCUUACUAUUUUGAUACUUUAUCAGUGAUAGUCCGGUUCUUUAAUUCACAAGUGAGUAUAUCAAAAUAUAAAAAAUACACGGCUUGAGUCAUUUUUUUCAACAGAGGAUUGAGCAUCA"}, "B14": {"name": "96118393_96119580_343_3pUTR_ENSMUSG00000033237_ENSMUST00000096250|mouse|control|control (ssRNA)", "RNA": "GGGAGUUCUACAGUCCGACGAUCAAGUAAUACUGUUUUAAAGCAAAGGCAGCGUUGGAACAACUUCUGGGAAAGUUGAACUCUUCAACAAUUUCUCCCCACUGAUUCUUCUCAGAAACCUUCGCGAAUCCGCCUAAAGUAGUGCAACAGAGGAUUGAGCAUCA"}, "B15": {"name": "chr15:5129413:5129414:+_ENSMUSG00000050697_ENSMUST00000051186|mus_hu|motif|central (ssRNA)", "RNA": "GGGAGUUCUACAGUCCGACGAUCAAAACAAAGAGGGAGGGAUAUGGAAGAAGUUAUCCAGACUGUUACUACUGCUGGAAGAUACGGGCUAUUUAUGAAGUUAAGGAGCCCAGAAAACAAAAUCACCUAUAAAGGUCUUGGGAACAACAGAGGAUUGAGCAUCA"}, "B16": {"name": "chr11:51926749:51926750:+_ENSMUSG00000020349_ENSMUST00000020608|perfect_dup|motif|central (ssRNA)", "RNA": "GGGAGUUCUACAGUCCGACGAUCGUCCACAUAGUCUCCCAUAAACAGGUAAUUUGUAUCUGGUGAUUUACCACCAAUUCGGAAGAGUUCCAUGAGAUCAUGAAAUUGCCCAUGUACAUCUCCACACACAGUGACUGGACAUCGCAACAGAGGAUUGAGCAUCA"}, "B17": {"name": "chr1:109605286:109605287:-_ENSG00000197780_ENST00000461096|hu_mus|motif|central (ssRNA)", "RNA": "GGGAGUUCUACAGUCCGACGAUCAAGUUUCAGAGUAACAUUCAGUAACCUCUUUAAAUGCAAUUAUCCUUAUUAUAAGCGGAGCAGAAUAAUAAUUUAAUACCGUAAGUGAACUACACACAAAGCCUGAACCGCGAAAAUGGUCAACAGAGGAUUGAGCAUCA"}, "B18": {"name": "chr5:128448638:128448639:+_ENSG00000066583_ENST00000173527|hu_mus|hu_hu_hu_mus_False|8_78 (ssRNA)", "RNA": "GGGAGUUCUACAGUCCGACGAUCGGCACUCGCCUUAAUUAGGUUCUGAAUUUCCUUGAAUUUUGGAUGGUCUUUGUCAGCCACCAGCUGUAGGAGGACAGCCUCACUAGUGGUCACGAUGAUCCCAGUUCGAGCGAGACGCUCCAACAGAGGAUUGAGCAUCA"}, "B19": {"name": "chr2:27656205:27656206:+_ENSG00000115216_ENST00000379852|hu_hu|motif|central (ssRNA)", "RNA": "GGGAGUUCUACAGUCCGACGAUCACUGAUGUCAGGCCAGGAGCUGAAGAUGAGGAUUCUACCUUUGGGUCUGAGCCACUGCGGAGUACUGUCUGGGACUCCCCCUCCGACAUGCUGGAAGGAACACUCAGGCCUCCCGACUCCCAACAGAGGAUUGAGCAUCA"}, "B20": {"name": "chr14:78183846:78183847:+_ENSG00000119705_ENST00000557342|hu_hu|hu_hu_hu_mus_False|18_48 (ssRNA)", "RNA": "GGGAGUUCUACAGUCCGACGAUCUCUCAGAAAUCUUUCUUCAUCAGAUGUUUGAGCUCCGUGCAAAGCCUUUGCUCUUUGAGCUUGAACCUGGACCUAUGGGAGGGAAAGCACUGUAUUUUCCUGUAAUUUUUUUUUUAAAGACAACAGAGGAUUGAGCAUCA"}, "B21": {"name": "chr11:120326911:120326912:-_ENSMUSG00000057594_ENSMUST00000124970|mus_hu|FALSE|FALSE (ssRNA)", "RNA": "GGGAGUUCUACAGUCCGACGAUCACUUUGGGUUAUUCUGCCCCUGUGAGAAGAAACUAUUGGCAGCAAAGCCAUACUGCCCUCUGCCACCUCUCCCCAGCUCAGGCCAGCUGCGCCUCUGCCGUGCAGUCAAUCGUUGGCUCUCAACAGAGGAUUGAGCAUCA"}, "B22": {"name": "chr4:142145789:142145790:+_ENSG00000109445_ENST00000262990|hu_mus|FALSE|FALSE (ssRNA)", "RNA": "GGGAGUUCUACAGUCCGACGAUCACACUGUGCACAAAUUGGUAACUUCUGAACAGAAUUACAAAAAUAGCAAAAUGCUCUAUUCUUCUGCCGCCUCUGACAUUUGUCGCAUUCCAUUGAAGCAUUGCAUGGGUGUUUGGCUAGCAACAGAGGAUUGAGCAUCA"}}, "note": "This is one part of the list.", "data": [{"biological_target": "T1, UNK ZnF1-3 (human, UniProt Q9C0B0 31-174)", "T1 sequence": "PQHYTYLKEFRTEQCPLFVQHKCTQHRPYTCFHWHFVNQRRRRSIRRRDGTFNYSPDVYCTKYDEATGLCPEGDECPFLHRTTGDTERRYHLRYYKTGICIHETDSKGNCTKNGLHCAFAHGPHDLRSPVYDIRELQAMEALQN", "test": "nsRBNS (natural sequence RNA bind-n-seq); RBNS binding buffer (assumed for nsRBNS): 25 mM Tris pH 7.5, 150 mM KCl, 3 mM MgCl2, 0.01% Triton X-100, 500 ug/ml BSA, 20 U/ml SUPERase-In, 4 C; UNK is unkempt and MSI1 is Musashi-1; names of the RNAs are library labels; protein concentration not given here; high values mean tight binding", "units": {"binding signal": "enrichment R"}, "values": [{"binder": "B1", "binding signal": 0.719}, {"binder": "B2", "binding signal": 2.48}, {"binder": "B3", "binding signal": 1.07}, {"binder": "B4", "binding signal": 0.708}, {"binder": "B5", "binding signal": 0.392}, {"binder": "B6", "binding signal": 1.19}, {"binder": "B7", "binding signal": 1.33}, {"binder": "B8", "binding signal": 1.23}, {"binder": "B9", "binding signal": 0.681}, {"binder": "B10", "binding signal": 0.862}, {"binder": "B11", "binding signal": 1.21}, {"binder": "B12", "binding signal": 0.406}, {"binder": "B13", "binding signal": 0.796}, {"binder": "B14", "binding signal": 0.883}, {"binder": "B15", "binding signal": 1.9}, {"binder": "B16", "binding signal": 1.08}, {"binder": "B17", "binding signal": 1.15}, {"binder": "B18", "binding signal": 0.694}, {"binder": "B19", "binding signal": 0.704}, {"binder": "B20", "binding signal": 1.65}, {"binder": "B21", "binding signal": 0.595}, {"binder": "B22", "binding signal": 1.15}]}]}
